In the supplement of paper PMC8285479 one finds normalised cell viability data, which are given here for 23 compounds.

Structures can show the parent of a compound that is named as a salt. ± gives the standard deviation of the averaged measurements. In all, about 1,900 compounds were measured (“normalised cell viability (NPI; 0 = phenylarsine oxide control, 1 = DMSO control)”: median about 1, lowest 2% from about 0.039 on). The list shows a part of the results.

The test system of the assay is NCI-H1944. In words: normalised cell viability (NPI; 0 = phenylarsine oxide control, 1 = DMSO control) (fraction of DMSO control); NCI-H1944 is a non-small cell lung cancer line; higher = more viable cells (less compound toxicity). The following applies: 6 days.
Setting [1] is: glucocorticoid arm: hydrocortisone 2.75 uM co-treatment, compound 1 µM.
Setting [2] is: glucocorticoid arm: hydrocortisone 2.75 uM co-treatment, compound 5 µM.
Setting [3] is: glucocorticoid arm: hydrocortisone 2.75 uM pre-treated 2 days and continued, compound 1 µM.
Setting [4] is: glucocorticoid arm: hydrocortisone 2.75 uM pre-treated 2 days and continued, compound 5 µM.
Setting [5] is: glucocorticoid arm: vehicle, compound 1 µM.
Where [6] appears, read: glucocorticoid arm: vehicle, compound 5 µM.
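Note: CTB read-out in 384-well plates, mean of triplicate wells, normalised per plate against 1 µM phenylarsine oxide and 0.1% DMSO, compounds added 24 h after seeding.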

`N#Cc1c(O)c2c(-c3ccc(-c4ccccc4O)cc3)csc2[nH]c1=O`: the normalised cell viability runs as follows: under setting [1], 0.982 ± 0.01; under setting [2], 0.999 ± 0.01; under setting [3], 0.986 ± 0.0053; under setting [4], 0.9907 ± 0.009; under setting [5], 1.01 ± 0.01; under setting [6], 1.01.

In the case of `CCCCC(=O)O[C@H]1CC[C@H]2[C@@H]3CCc4cc(O)ccc4[C@H]3CC[C@]12C` [Estradiol valerate], the normalised cell viability is, setting by setting: under setting [1], 1.02 ± 0.02; under setting [2], 1.04 ± 0.01; under setting [3], 1.02 ± 0.01; under setting [4], 1.04 ± 0.023; under setting [5], 1.01 ± 0.01; under setting [6], 1.01.

`O=c1cc(-c2cccc3c2Sc2ccccc2S3)oc(N2CCOCC2)c1`: the normalised cell viability amounted to 0.994 ± 0.01 under setting [1]; 1.01 ± 0.017 under setting [2]; 0.996 ± 0.026 under setting [3]; 0.972 ± 0.019 under setting [4]; 1.023 ± 0.0058 under setting [5]; 1.037 ± 0.0058 under setting [6].

Turning to `Oc1ccc([C@H]2COc3cc(O)ccc3C2)cc1` [Equol], the normalised cell viability is, setting by setting: under setting [1], 0.996 ± 0.026; under setting [2], 0.982 ± 0.034; under setting [3], 0.993 ± 0.011; under setting [4], 1 ± 0.01; under setting [5], 0.987 ± 0.011; under setting [6], 0.9913 ± 0.0085.

In the case of `Fc1ccc(C(c2ccc(F)cc2)N2CCN(C/C=C/c3ccccc3)CC2)cc1` [Flunarizine dihydrochloride], the normalised cell viability runs as follows: under setting [1], 1.01 ± 0.018; under setting [2], 0.983 ± 0.014; under setting [3], 1.01 ± 0.011; under setting [4], 1.05 ± 0.026; under setting [5], 1.02; under setting [6], 1.017 ± 0.0058.

Take `Nc1nc(Cl)nc2c1ncn2[C@H]1C[C@H](O)[C@@H](CO)O1` [Cladribine]: the normalised cell viability is 0.0575 ± 0.013 under setting [1]; 0.0436 ± 0.0033 under setting [2]; 0.169 ± 0.0085 under setting [3]; 0.1867 ± 0.0011 under setting [4]; 0.0131 ± 0.0023 under setting [5]; 0.0121 ± 0.0031 under setting [6].

With `COc1cccc2c1[C@@H]1CN(CCCCn3c(=O)[nH]c4c(sc5ncc(-c6ccccc6)nc54)c3=O)C[C@@H]1CO2` [Fiduxosin hydrochloride], the normalised cell viability was determined as 1.013 ± 0.0058 under setting [1]; 1.02 ± 0.015 under setting [2]; 1.01 ± 0.01 under setting [3]; 1.05 ± 0.036 under setting [4]; 1.017 ± 0.0058 under setting [5]; 1.01 ± 0.015 under setting [6].

Regarding `COc1cccc2c1C(=O)c1c(O)c3c(c(O)c1C2=O)C[C@@](O)(C(=O)CO)C[C@@H]3O[C@H]1C[C@H](N)[C@H](O)[C@H](C)O1` [Doxorubicin hydrochloride; 4'-Epiadriamycin; Doxorubicin HCl], the normalised cell viability turned out to be 0.454 ± 0.36 under setting [1]; 0.288 ± 0.3 under setting [2]; 0.754 ± 0.26 under setting [3]; 0.484 ± 0.48 under setting [4]; 0.178 ± 0.17 under setting [5]; 0.129 ± 0.14 under setting [6].

`Cc1cc(C(=O)NOCCO)c(Nc2ccc(I)cc2F)n(C)c1=O`: the normalised cell viability runs as follows: under setting [1], 0.614 ± 0.018; under setting [2], 0.565 ± 0.035; under setting [3], 0.66 ± 0.011; under setting [4], 0.672 ± 0.037; under setting [5], 0.286 ± 0.014; under setting [6], 0.279 ± 0.013.

In the case of `Cn1cnc2c(NCc3ccccc3)nc(NCCO)nc21` [Olomoucine], the normalised cell viability under setting [1] came out at 1.006 ± 0.0069; the normalised cell viability under setting [2] came out at 1.03 ± 0.01; the normalised cell viability under setting [3] was 1.02 ± 0.01; the normalised cell viability under setting [4] was 1.08 ± 0.1; the normalised cell viability under setting [5] was found to be 1.002 ± 0.0072; the normalised cell viability under setting [6] worked out at 1 ± 0.014.

For `OCCOCCN1CCN(C2=Nc3ccccc3Sc3ccccc32)CC1` [Quetiapine Fumarate], the normalised cell viability worked out at 0.9587 ± 0.0072 under setting [1]; 0.967 ± 0.038 under setting [2]; 0.983 ± 0.015 under setting [3]; 0.954 ± 0.033 under setting [4]; 0.9927 ± 0.0031 under setting [5]; 0.9833 ± 0.004 under setting [6].

As to `S=C(S)OC1CC2CC1C1CCCC21` [D-609 potassium], the normalised cell viability under setting [1] was determined as 1.02 ± 0.01; the normalised cell viability under setting [2] was found to be 1.03 ± 0.017; the normalised cell viability under setting [3] is 1.04 ± 0.02; the normalised cell viability under setting [4] is 1.04 ± 0.01; the normalised cell viability under setting [5] is 1.03 ± 0.011; the normalised cell viability under setting [6] amounted to 1.03.

Take `O=[N+]([O-])c1ccc(-c2nc(-c3ccc(F)cc3)c(-c3ccncc3)[nH]2)cc1`: the normalised cell viability runs as follows: under setting [1], 0.976 ± 0.019; under setting [2], 0.903 ± 0.014; under setting [3], 0.9707 ± 0.008; under setting [4], 0.865 ± 0.019; under setting [5], 0.996 ± 0.004; under setting [6], 0.962 ± 0.051.

Take `C[C@]12CCC(=O)C=C1CC[C@@H]1[C@@H]2[C@@H](O)C[C@@]2(C)[C@H]1CC[C@]2(O)C(=O)CO` [Hydrocortisone]: the normalised cell viability runs as follows: under setting [1], 0.9983 ± 0.0029; under setting [2], 0.986 ± 0.011; under setting [3], 0.979 ± 0.037; under setting [4], 1 ± 0.015; under setting [5], 0.932 ± 0.002; under setting [6], 0.815 ± 0.018.

On to `CNCCCC1c2ccccc2C=Cc2ccccc21` [Protriptyline hydrochloride], for which the normalised cell viability under setting [1] stood at 0.992 ± 0.0072; the normalised cell viability under setting [2] was 0.951 ± 0.012; the normalised cell viability under setting [3] was determined as 1.01 ± 0.023; the normalised cell viability under setting [4] was 1.01 ± 0.013; the normalised cell viability under setting [5] turned out to be 0.9823 ± 0.0038; the normalised cell viability under setting [6] was found to be 0.9793 ± 0.0061.

For `C[N+]1(CCCCC[N+]2(C)CCCC2)CCCC1` [Pentolinium di[L(+)-tartrate]], the normalised cell viability is, setting by setting: under setting [1], 1 ± 0.014; under setting [2], 1.01 ± 0.025; under setting [3], 1.005 ± 0.0081; under setting [4], 1.04 ± 0.084; under setting [5], 1.01; under setting [6], 1.01 ± 0.011.

For the compound `O=C(Nc1ccccc1)c1cc([N+](=O)[O-])ccc1Cl`, the normalised cell viability by setting is: under setting [1], 0.9997 ± 0.0093; under setting [2], 1.04 ± 0.01; under setting [3], 0.993 ± 0.012; under setting [4], 0.862 ± 0.28; under setting [5], 1.003 ± 0.0058; under setting [6], 1.01 ± 0.01.

For the compound `Cn1cnc(-c2cc3nccc(Oc4ccc(NC(=S)NC(=O)Cc5ccccc5)cc4F)c3s2)c1`, the normalised cell viability amounted to 1.017 ± 0.0058 under setting [1]; 1.04 ± 0.035 under setting [2]; 1.013 ± 0.0058 under setting [3]; 1.04 ± 0.031 under setting [4]; 0.9993 ± 0.0011 under setting [5]; 0.9933 ± 0.0023 under setting [6].

For the compound `CCC(=O)N1CCN(c2ccc(-n3c(=O)ccc4cnc5ccc(-c6cnc7ccccc7c6)cc5c43)cc2C(F)(F)F)CC1` [Torin 1], the normalised cell viability is, setting by setting: under setting [1], 0.4 ± 0.0087; under setting [2], 0.383 ± 0.013; under setting [3], 0.532 ± 0.018; under setting [4], 0.518 ± 0.022; under setting [5], 0.223 ± 0.023; under setting [6], 0.286 ± 0.01.

For the compound `O=c1cc(N2CCOCC2)oc2c(-c3cccc4c3sc3ccccc34)cccc12`, the normalised cell viability turned out to be 0.912 ± 0.014 under setting [1]; 0.96 ± 0.026 under setting [2]; 0.924 ± 0.022 under setting [3]; 0.962 ± 0.039 under setting [4]; 1.003 ± 0.0064 under setting [5]; 1.017 ± 0.0058 under setting [6].

Regarding `CC(C)(C(=O)O)c1ccc(C(O)CCCN2CCC(C(O)(c3ccccc3)c3ccccc3)CC2)cc1` (stereo not drawn) [Fexofenadine HCl], the normalised cell viability runs as follows: under setting [1], 1.03 ± 0.01; under setting [2], 1.02 ± 0.021; under setting [3], 1.037 ± 0.0058; under setting [4], 1.05 ± 0.011; under setting [5], 0.999 ± 0.011; under setting [6], 0.998 ± 0.01.

Consider `CC(C)(C(=O)O)c1ccc(C(O)CCCN2CCC(C(O)(c3ccccc3)c3ccccc3)CC2)cc1` (stereo not drawn) [Fexofenadine hydrochloride], for which the normalised cell viability under setting [1] is 1.006 ± 0.0069; the normalised cell viability under setting [2] came out at 1 ± 0.013; the normalised cell viability under setting [3] was found to be 0.997 ± 0.013; the normalised cell viability under setting [4] stood at 0.99 ± 0.01; the normalised cell viability under setting [5] is 1.003 ± 0.0058; the normalised cell viability under setting [6] amounted to 0.9967 ± 0.0035.

In the case of `CC(N)=NCCCC[C@H](N)C(=O)O` [L-N6-(1-Iminoethyl)lysine hydrochloride], the normalised cell viability is, setting by setting: under setting [1], 0.985 ± 0.014; under setting [2], 0.968 ± 0.044; under setting [3], 0.9953 ± 0.0042; under setting [4], 1.01 ± 0.091; under setting [5], 0.9713 ± 0.0049; under setting [6], 0.979 ± 0.0087.
